Assay results from the RNAGym collection of RNA variant scans (doi:10.1073/pnas.2313332121).
This sample is rich in variants without activity.

B1: TPR 5TU (parent)
chain: GGAUCUUCUCGAUCUAACAAAAAAGACAAAUCUGCCACAAAGCUUGAGAGCAUCUUCGGAUGCAGAGGCGGCAGCCUUCGGUGGCGCGAUAGCGCCAACGUUCUCAACUAUGACACGCAAAACGCGUGCUCCGUUGAAUGGAGUUUAUCAUG

Variants of: B1
Test: polymerase ribozyme fitness, log enrichment relative to wild type (log ratio); higher = more active; in vitro selection for triplet polymerase activity
How it was run: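 The heterodimeric triplet polymerase ribozyme's subunits were each mutagenized into PCR-built libraries and transcribed. Every library was selected once, in triplicate, by annealing with a biotinylated primer, the partner subunit and triplets, incubating frozen at −7 °C, gel-excising extended constructs, capturing on streptavidin beads and running RT-PCR. Input and output libraries were Illumina-sequenced, with genotypes kept only at ≥10 input reads and ≥1 read per output. Fitness, from inverse-variance-weighted replicate averages, is the base-2 logarithm of genotype enrichment over wild-type enrichment.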
With A29G A41G A49G C54U G68C U102A the “polymerase ribozyme fitness (log ratio)” value was ≤ -4.2. With A29G A89U G133U the “polymerase ribozyme fitness (log ratio)” value was ≤ -4.2. In the case of A29U A66C C75G C85G U145A, the “polymerase ribozyme fitness (log ratio)” value is reported as ≤ -4.2. With A29U G42A G50A C85U G117A the “polymerase ribozyme fitness (log ratio)” value was ≤ -4.2. With A30G A49C G58C G67A C96G A113U A120G the “polymerase ribozyme fitness (log ratio)” value was ≤ -4.2. For A29G G84C G88A, the “polymerase ribozyme fitness (log ratio)” value was ≤ -4.2. For A29U G46U G70U U90G C95U A115G G117U A120U, the “polymerase ribozyme fitness (log ratio)” value was ≤ -4.2. In the case of A30U A40G C96G G140U, the “polymerase ribozyme fitness (log ratio)” value is reported as ≤ -4.2. In the case of A29G A41C U45G G68A G84A G100A A107U A150G, the “polymerase ribozyme fitness (log ratio)” value is reported as ≤ -4.2. In the case of A29G U55G G94A C108A A119G, the “polymerase ribozyme fitness (log ratio)” value is reported as ≤ -4.2. For A30C C43G A52C G65U C93U A106G G141U, the “polymerase ribozyme fitness (log ratio)” value was ≤ -4.2. For A29C G84A U101C U127C, the “polymerase ribozyme fitness (log ratio)” value was ≤ -4.2. In the case of A30C C95G C108U C132G G133U, the “polymerase ribozyme fitness (log ratio)” value is reported as ≤ -4.2. In the case of A30G A40C C87G G152U, the “polymerase ribozyme fitness (log ratio)” value is reported as ≤ -4.2. For A30G U55A G83C U135G, the “polymerase ribozyme fitness (log ratio)” value was ≤ -4.2. In the case of A29U A30C G58U G74U G133C, the “polymerase ribozyme fitness (log ratio)” value is reported as ≤ -4.2. With A29U U56C A120G U148C the “polymerase ribozyme fitness (log ratio)” value was ≤ -4.2. In the case of A29G G74A G92U G117A, the “polymerase ribozyme fitness (log ratio)” value is reported as ≤ -4.2. For A29C U53A C57U C76U U82A G83A A107G, the “polymerase ribozyme fitness (log ratio)” value was ≤ -4.2. With A29U A91U the “polymerase ribozyme fitness (log ratio)” value was ≤ -4.2. In the case of A29U U55A G62C C116G, the “polymerase ribozyme fitness (log ratio)” value is reported as ≤ -4.2. For A29G C57G A73C C85U A107U A110U, the “polymerase ribozyme fitness (log ratio)” value was ≤ -4.2. In the case of A30C C32A C51G A89G C93U A106G U145G G152A, the “polymerase ribozyme fitness (log ratio)” value is reported as ≤ -4.2. For A29G A49C G92U A137U A142U, the “polymerase ribozyme fitness (log ratio)” value was ≤ -4.2. With A29U C93A U130G G133A G143U the “polymerase ribozyme fitness (log ratio)” value was ≤ -4.2. For A29G G88C, the “polymerase ribozyme fitness (log ratio)” value was ≤ -4.2. For A30C A49C C51G G94C G126U G133A U139A, the “polymerase ribozyme fitness (log ratio)” value was ≤ -4.2. For A29G U45G A52C G88C U146G, the “polymerase ribozyme fitness (log ratio)” value was ≤ -4.2. In the case of A30G G42C U45A A64G G68A G86U G117A, the “polymerase ribozyme fitness (log ratio)” value is reported as ≤ -4.2. With A29U G48U G84A A122G A137C the “polymerase ribozyme fitness (log ratio)” value was ≤ -4.2. For A29G U44A C72U G94U A98G A106U A121U A142C, the “polymerase ribozyme fitness (log ratio)” value was ≤ -4.2. For A29G G50C U55A C57A U101A U104G C125U A142C A150C, the “polymerase ribozyme fitness (log ratio)” value was ≤ -4.2. For A29G C96A G112C C116G A119C U148A, the “polymerase ribozyme fitness (log ratio)” value was ≤ -4.2. With A30G C93U the “polymerase ribozyme fitness (log ratio)” value was ≤ -4.2. In the case of A30C G48A G59A A115G A121U C125G G141C A142G, the “polymerase ribozyme fitness (log ratio)” value is reported as ≤ -4.2. In the case of A29C U55A C75A C85U G141C, the “polymerase ribozyme fitness (log ratio)” value is reported as ≤ -4.2. For A29U A39U A47C U55A A110U C125A G128A, the “polymerase ribozyme fitness (log ratio)” value was ≤ -4.2. For A29G A52C C57U C93U A113U C129G C132G, the “polymerase ribozyme fitness (log ratio)” value was ≤ -4.2. For A29U C114U A137G G141A U148C, the “polymerase ribozyme fitness (log ratio)” value was ≤ -4.2. With A29U C87U A98U G100C the “polymerase ribozyme fitness (log ratio)” value was ≤ -4.2. For A30G A40C G42A C54A G67C U139A U148A, the “polymerase ribozyme fitness (log ratio)” value was ≤ -4.2. With A30C U31G G48C A64C U90G the “polymerase ribozyme fitness (log ratio)” value was ≤ -4.2. For A30G C85U G128A, the “polymerase ribozyme fitness (log ratio)” value was ≤ -4.2. In the case of A29U A89U, the “polymerase ribozyme fitness (log ratio)” value is reported as ≤ -4.2. With A29U G48A C75G C93U C105G G136A the “polymerase ribozyme fitness (log ratio)” value was ≤ -4.2. For A29U C87G G100U U101G, the “polymerase ribozyme fitness (log ratio)” value was ≤ -4.2. In the case of A29G G136A U145G, the “polymerase ribozyme fitness (log ratio)” value is reported as ≤ -4.2. For A29U A49C C76A G84U U104G, the “polymerase ribozyme fitness (log ratio)” value was ≤ -4.2. In the case of A29G C57A A137G, the “polymerase ribozyme fitness (log ratio)” value is reported as ≤ -4.2. For A29U A30G C116A G133C, the “polymerase ribozyme fitness (log ratio)” value was ≤ -4.2. In the case of A30G G50U U55G U82A, the “polymerase ribozyme fitness (log ratio)” value is reported as ≤ -4.2. For A30G G84U C118A A121C, the “polymerase ribozyme fitness (log ratio)” value was ≤ -4.2. In the case of A29U A37U C72G C95U C114U G143U, the “polymerase ribozyme fitness (log ratio)” value is reported as ≤ -4.2. With A30G A49U A98U the “polymerase ribozyme fitness (log ratio)” value was ≤ -4.2. In the case of A30C C54A U82C G136C C149A, the “polymerase ribozyme fitness (log ratio)” value is reported as ≤ -4.2. For A29C G65C C87U G92A, the “polymerase ribozyme fitness (log ratio)” value was ≤ -4.2. With A29G U45A G48A C51G U55A C95G U127C G141A the “polymerase ribozyme fitness (log ratio)” value was ≤ -4.2. With A29G A39C G48A A52C C75A G86A C123G G143U the “polymerase ribozyme fitness (log ratio)” value was ≤ -4.2. With A29G G86U G100U the “polymerase ribozyme fitness (log ratio)” value was ≤ -4.2. For A30C G84A G94U G128U, the “polymerase ribozyme fitness (log ratio)” value was ≤ -4.2. With A29U C35U A97G U139A G140C the “polymerase ribozyme fitness (log ratio)” value was ≤ -4.2. In the case of A30G G74C G83U A106C, the “polymerase ribozyme fitness (log ratio)” value is reported as ≤ -4.2. For A29C U56A G80U A121G, the “polymerase ribozyme fitness (log ratio)” value was ≤ -4.2. In the case of A29G G50A A52C U101G G133C, the “polymerase ribozyme fitness (log ratio)” value is reported as ≤ -4.2. For A30G G71A G92A C125G, the “polymerase ribozyme fitness (log ratio)” value was ≤ -4.2. In the case of A30C G50U U78G G86U A115G, the “polymerase ribozyme fitness (log ratio)” value is reported as ≤ -4.2. For A29C U44A C51U C79U C118U A142U U146C, the “polymerase ribozyme fitness (log ratio)” value was ≤ -4.2. In the case of A30C G59C A60G U61G C116G C125G, the “polymerase ribozyme fitness (log ratio)” value is reported as ≤ -4.2. For A30G A64C G80U G94A, the “polymerase ribozyme fitness (log ratio)” value was ≤ -4.2. For A29G C35G U44A U61A G67A G92U, the “polymerase ribozyme fitness (log ratio)” value was ≤ -4.2. For A29U A47U, the “polymerase ribozyme fitness (log ratio)” value was ≤ -4.2. In the case of A30G G68A C79G C95U C114G U134A, the “polymerase ribozyme fitness (log ratio)” value is reported as ≤ -4.2. For A29U U44A C85G G124A G152A, the “polymerase ribozyme fitness (log ratio)” value was ≤ -4.2. For A30C C63A G83A A150C G152A, the “polymerase ribozyme fitness (log ratio)” value was ≤ -4.2. With A29U C43A C85G C116U A120U G141C the “polymerase ribozyme fitness (log ratio)” value was ≤ -4.2. In the case of A29G G80A C85U U109A U146C, the “polymerase ribozyme fitness (log ratio)” value is reported as ≤ -4.2. For A29U U139A, the “polymerase ribozyme fitness (log ratio)” value was ≤ -4.2. For A29U C93U A150C, the “polymerase ribozyme fitness (log ratio)” value was ≤ -4.2. For A29U U148G, the “polymerase ribozyme fitness (log ratio)” value was ≤ -4.2. With A30C A47U A49U G50U U56A G94A G140C the “polymerase ribozyme fitness (log ratio)” value was ≤ -4.2. For A29G G42A G65U C114G, the “polymerase ribozyme fitness (log ratio)” value was ≤ -4.2. With A29G C43A G48C C93G G126C the “polymerase ribozyme fitness (log ratio)” value was ≤ -4.2. With A30G G48A C87G A147U the “polymerase ribozyme fitness (log ratio)” value was ≤ -4.2.
